Assay results published in paper PMC8462813.
Results are given in words; binding and its absence hold for the method and conditions named. For part of these data: Binding seen in cells or lysates may run through a third protein. Some entries that bind do so weakly or less than the wild type. Tags and fused reporters may be left off the sequences shown.

B1: AD-ABI5^165-442 (domain or fragment, UniProt Q9SJN0 165-442)
chain: HRGGGSGNGGDSNGRSSSSNGQNNAQNGGETAARQPTFGEMTLEDFLVKAGVVREHPTNPKPNPNPNQNQNPSSVIPAAAQQQLYGVFQGTGDPSFPGQAMGVGDPSGYAKRTGGGGYQQAPPVQAGVCYGGGVGFGAGGQQMGMVGPLSPVSSDGLGHGQVDNIGGQYGVDMGGLRGRKRVVDGPVEKVVERRQRRMIKNRESAARSRARKQAYTVELEAELNQLKEENAQLKHALAELERKRKQQYFESLKSRAQPKLPKSNGRLRTLMRNPSCPL
B2: AD-ABI5^350-442 (domain or fragment, UniProt Q9SJN0 350-442)
chain: PVEKVVERRQRRMIKNRESAARSRARKQAYTVELEAELNQLKEENAQLKHALAELERKRKQQYFESLKSRAQPKLPKSNGRLRTLMRNPSCPL
B3: ABI5-cYFP (protein, UniProt Q9SJN0 1-442)
chain: MVTRETKLTSEREVESSMAQARHNGGGGGENHPFTSLGRQSSIYSLTLDEFQHALCENGKNFGSMNMDEFLVSIWNAEENNNNQQQAAAAAGSHSVPANHNGFNNNNNNGGEGGVGVFSGGSRGNEDANNKRGIANESSLPRQGSLTLPAPLCRKTVDEVWSEIHRGGGSGNGGDSNGRSSSSNGQNNAQNGGETAARQPTFGEMTLEDFLVKAGVVREHPTNPKPNPNPNQNQNPSSVIPAAAQQQLYGVFQGTGDPSFPGQAMGVGDPSGYAKRTGGGGYQQAPPVQAGVCYGGGVGFGAGGQQMGMVGPLSPVSSDGLGHGQVDNIGGQYGVDMGGLRGRKRVVDGPVEKVVERRQRRMIKNRESAARSRARKQAYTVELEAELNQLKEENAQLKHALAELERKRKQQYFESLKSRAQPKLPKSNGRLRTLMRNPSCPL
B4: AD-ABI5^1-164 (domain or fragment, UniProt Q9SJN0 1-164)
chain: MVTRETKLTSEREVESSMAQARHNGGGGGENHPFTSLGRQSSIYSLTLDEFQHALCENGKNFGSMNMDEFLVSIWNAEENNNNQQQAAAAAGSHSVPANHNGFNNNNNNGGEGGVGVFSGGSRGNEDANNKRGIANESSLPRQGSLTLPAPLCRKTVDEVWSEI
B5: ABI5^1-164-cYFP (domain or fragment, UniProt Q9SJN0 1-164)
chain: B4 chain
B6: AD-ABI3 (full length, fused to the Gal4 activation domain) (protein, UniProt Q01593 1-720)
chain: MKSLHVAANAGDLAEDCGILGGDADDTVLMDGIDEVGREIWLDDHGGDNNHVHGHQDDDLIVHHDPSIFYGDLPTLPDFPCMSSSSSSSTSPAPVNAIVSSASSSSAASSSTSSAASWAILRSDGEDPTPNQNQYASGNCDDSSGALQSTASMEIPLDSSQGFGCGEGGGDCIDMMETFGYMDLLDSNEFFDTSAIFSQDDDTQNPNLMDQTLERQEDQVVVPMMENNSGGDMQMMNSSLEQDDDLAAVFLEWLKNNKETVSAEDLRKVKIKKATIESAARRLGGGKEAMKQLLKLILEWVQTNHLQRRRTTTTTTNLSYQQSFQQDPFQNPNPNNNNLIPPSDQTCFSPSTWVPPPPQQQAFVSDPGFGYMPAPNYPPQPEFLPLLESPPSWPPPPQSGPMPHQQFPMPPTSQYNQFGDPTGFNGYNMNPYQYPYVPAGQMRDQRLLRLCSSATKEARKKRMARQRRFLSHHHRHNNNNNNNNNNQQNQTQIGETCAAVAPQLNPVATTATGGTWMYWPNVPAVPPQLPPVMETQLPTMDRAGSASAMPRQQVVPDRRQGWKPEKNLRFLLQKVLKQSDVGNLGRIVLPKKEAETHLPELEARDGISLAMEDIGTSRVWNMRYRFWPNNKSRMYLLENTGDFVKTNGLQEGDFIVIYSDVKCGKYLIRGVKVRQPSGQKPEAPPSSAATKRQNKSQRNINNNSPSANVVVASPTSQTVK

Tests used:
[1] = target: T1, BD-PRR5 (PSEUDO-RESPONSE REGULATOR5, full length, fused to the Gal4 DNA-binding domain) (Arabidopsis thaliana) (UniProt Q6LA42); test: two-hybrid; Gal4 system; baits in pGBKT7 (BD), preys in pGADT7 (AD), cotransformed into yeast AH109; growth on dropout medium lacking Leu, Trp, His and Ade for 4 days
T1 sequence: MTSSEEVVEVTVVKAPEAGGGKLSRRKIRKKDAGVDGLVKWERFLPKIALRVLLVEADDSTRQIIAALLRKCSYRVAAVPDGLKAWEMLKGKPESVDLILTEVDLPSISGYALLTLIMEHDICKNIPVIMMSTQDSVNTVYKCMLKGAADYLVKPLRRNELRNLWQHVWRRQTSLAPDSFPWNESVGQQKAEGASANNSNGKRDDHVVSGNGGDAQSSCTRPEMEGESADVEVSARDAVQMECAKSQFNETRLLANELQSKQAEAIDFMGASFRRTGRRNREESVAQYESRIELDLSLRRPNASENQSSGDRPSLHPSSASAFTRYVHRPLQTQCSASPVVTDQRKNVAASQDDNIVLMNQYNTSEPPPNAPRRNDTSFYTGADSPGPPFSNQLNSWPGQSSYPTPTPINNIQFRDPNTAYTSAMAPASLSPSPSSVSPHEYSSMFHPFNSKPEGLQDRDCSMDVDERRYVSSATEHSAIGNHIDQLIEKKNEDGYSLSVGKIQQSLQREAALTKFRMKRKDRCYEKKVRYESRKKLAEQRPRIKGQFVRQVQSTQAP

[2] = target: T2, PRR5-nYFP (Arabidopsis thaliana) (UniProt Q6LA42); test: split reporter; BiFC with cYFP and nYFP fusions transiently coexpressed in N. benthamiana leaf cells; YFP fluorescence read by confocal microscopy 40-52 h after infiltration
T2 sequence: T1 sequence

[3] = target: T3, PRR7-nYFP (Arabidopsis thaliana) (UniProt Q93WK5); test: as above
T3 sequence: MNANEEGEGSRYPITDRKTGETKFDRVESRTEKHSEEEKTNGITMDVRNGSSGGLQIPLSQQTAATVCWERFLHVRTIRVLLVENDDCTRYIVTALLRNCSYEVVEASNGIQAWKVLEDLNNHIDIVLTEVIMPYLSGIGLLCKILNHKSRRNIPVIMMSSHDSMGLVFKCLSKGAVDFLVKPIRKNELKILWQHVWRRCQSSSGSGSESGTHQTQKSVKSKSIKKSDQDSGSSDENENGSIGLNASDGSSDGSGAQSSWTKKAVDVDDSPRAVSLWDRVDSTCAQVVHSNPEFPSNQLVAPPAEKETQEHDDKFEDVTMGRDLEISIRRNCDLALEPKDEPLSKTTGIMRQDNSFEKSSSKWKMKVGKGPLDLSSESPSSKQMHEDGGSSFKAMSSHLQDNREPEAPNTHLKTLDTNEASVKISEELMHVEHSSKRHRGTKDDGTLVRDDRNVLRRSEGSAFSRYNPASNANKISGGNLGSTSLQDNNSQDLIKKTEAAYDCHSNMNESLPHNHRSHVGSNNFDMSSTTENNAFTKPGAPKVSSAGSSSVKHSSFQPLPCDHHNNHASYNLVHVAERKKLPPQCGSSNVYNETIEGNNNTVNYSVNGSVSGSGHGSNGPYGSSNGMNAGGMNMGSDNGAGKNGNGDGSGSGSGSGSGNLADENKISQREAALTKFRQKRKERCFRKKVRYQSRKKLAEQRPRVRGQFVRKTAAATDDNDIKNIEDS

[4] = target: T4, BD-PRR7 (PSEUDO-RESPONSE REGULATOR7, full length, fused to the Gal4 DNA-binding domain) (Arabidopsis thaliana) (UniProt Q93WK5); test: two-hybrid; Gal4 system; baits in pGBKT7 (BD), preys in pGADT7 (AD), cotransformed into yeast AH109; growth on dropout medium lacking Leu, Trp, His and Ade for 4 days
T4 sequence: T3 sequence

binding [1] | binding [2] | binding [3] | binding [4] | Binder
binds |  |  |  | B1
binds |  |  |  | B2
 | binds | binds |  | B3
no binding |  |  |  | B4
 | no binding | no binding |  | B5
no binding |  |  | no binding | B6
